# Assay results published in PubChem BioAssay AID662 (National Center for Advancing Translational Sciences (NCATS), 2007).
# Screen size: about 71,000 compounds; about 1,800 (2.5%) were called active. Inconclusive means that the source gave no clear call. Such entries were picked first, then a sample of the others. Calls follow the shape of the dose curve; as a rule, active = well fitted activation curve with a large enough effect in the signal ratio, with a control signal flat (not every such curve was filed as active); inconclusive = small, poorly fitted or top-dose-only effect, or effect the other way, or a change in a side signal; inactive = flat fitted curve, though single readings scatter; the % refers to the signal ratio. Potencies of inconclusive entries are doubtful fits and often do not repeat.
# Experiment: Cell signaling CRE-BLA (Fsk stim); as to activity change, negative = inhibition: % of control where 0% means no effect
# Conditions: CHO CRE-bla reporter (cAMP response element driving beta-lactamase), forskolin EC10, beta-lactamase ratio; activity change, negative = inhibition: at 38.2 µM (top of the series) unless noted
# How it was run: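 CRE-bla CHO cells stimulated with EC10 NKH 477 (water-soluble forskolin) and compound titrations, 3 h at 37C; beta-lactamase read with CCF4 after 2 h at room temperature. Activity from 460/530 nm emission ratio, AC50 values for positive or negative modulation.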
# Potency is read from the fitted curve at half-maximal effect; tags tell the direction and shape of the fitted curve.
Compound,"activity change, negative = inhibition",Potency
CCCCCCN(C(=O)CCCCCN1C(=O)NC(c2ccc(C(C)(C)C)cc2)C(C(=O)OCc2ccccc2)=C1C)C(C(=O)NCCCC)c1ccc(OCC(=O)OC)c(C(=O)OC)c1 (stereo not drawn),inconclusive: 5.54%,–
Cc1ccc2cc3cc(C(=O)NCc4ccco4)oc3nc2c1,inconclusive: 3.77%,–
S=C(c1ccc(-c2ccccc2Cl)o1)N1CCOCC1,inactive: 28.1%,–
O=C(O)C1(c2cccc(Cl)c2)CCC1,–,"inconclusive: 3.16 µM [falling, single point]"
COC(=O)C(CC(C)C)NC(=O)CSc1nc(-c2ccccc2)c(C#N)c(=O)[nH]1 (stereo not drawn),inactive: -17.4%,–
CCn1c(SCC(=O)N2CCCc3ccccc32)nc2c1c(=O)n(C)c(=O)n2C,–,"inconclusive: 10 µM [rising, single point]"
CCSc1nc(=S)n(CC)c(C)c1C(C)=O,–,"inconclusive: 7.94 µM [rising, partial curve]"
COc1ccc(-c2nnc(NC(=O)c3cc(C)on3)s2)cc1,inactive: -7.21%,–
Cc1ccc(-c2nc(CS(=O)CC(=O)NCCCN3CC(C)CC(C)C3)c(C)o2)cc1 (stereo not drawn),inactive: -3.63%,–
CCOC(=O)COc1cc2c3c(c(=O)oc2cc1C)CCCC3,inconclusive: 4.6%,–
Cc1nc(SCC(=O)Nc2cc(C)on2)c2c(=O)n(C)c(=O)n(C)c2n1,–,active: 2 µM
Cc1ccc(S(=O)(=O)N2CC(O)CC2C(=O)Nc2ccc3c(c2)CCC3)cc1 (stereo not drawn),inconclusive: 3.48%,–
CN1CCc2c(sc3c2C(=O)NC(c2cn(Cc4ccccc4)c4ccccc24)N3)C1 (stereo not drawn),–,"inconclusive: 10 µM [rising, partial curve]"
O=[N+]([O-])c1ccc(C2=Nn3c(nnc3-c3ccc(Cl)cc3)SC2)o1,inactive: 8.52% [at 7.6 µM],–
COc1cccc(-c2cc(C(F)(F)F)nc(N3CCCCC3)n2)c1,–,"inconclusive: 12.6 µM [rising, single point]"
COc1ccc(NC(=O)CCCCn2c(=O)[nH]c3ccccc3c2=O)cc1,inconclusive: 21.8%,–
Cc1c(NC(=O)CC(=O)Nc2c(C)n(C)n(-c3ccccc3)c2=O)c(=O)n(-c2ccccc2)n1C,–,"inconclusive: 25.1 µM [rising, single point]"
CN(C)c1ccc(-c2ccc3ncnc(N(C)C)c3c2)cc1,–,active: 10 µM
CC(C)c1nc2sc3c(SCC(=O)NCc4ccco4)ncnc3c2c2c1CCC2,–,"inconclusive: 12.6 µM [rising, single point]"
COC(=O)[C@@]1(Cc2ccc(F)cc2)[C@H]2c3cc(C(=O)N(C)C)n(Cc4ccc(C)c(F)c4F)c3C[C@H]2CN1C(=O)c1ccccc1,inactive: -0.348%,–
COc1cccc(OC)c1C(=O)Nc1c(C)n(C)n(-c2ccccc2)c1=O,–,"inconclusive: 0.02 µM [rising, full curve, poor fit]"
CN(C)/C=C(\C#N)c1nc2ccccc2[nH]1,inactive: 4.48%,–
COc1cc(C2N=C(c3ccccc3)NO2)cc(Br)c1O (stereo not drawn),–,"inconclusive: 3.98 µM [falling, single point]"
O=c1n(Cc2ccc(Cl)cc2)c2sc3c(c2c2ncnn12)CCCC3,–,"inconclusive: 6.31 µM [rising, partial curve]"
Cc1ccccc1NS(=O)(=O)c1ccc(C2CNC(=O)C2)cc1 (stereo not drawn),inconclusive: 24.6%,–
COc1ccc(C(=O)N2CCCC(c3nc(-c4ccc(OC)c(OC)c4)no3)C2)c(OC)c1 (stereo not drawn),–,"inconclusive: 12.6 µM [rising, single point]"

Compound,"activity change, negative = inhibition",Potency
COc1ccccc1N1CCN(CC(=O)c2ccc3ccn(C(C)=O)c3c2)CC1,inconclusive: -27.7%,–
O=C(c1ccc2c(c1)OCO2)N1CCNc2ccccc2C1,–,"inconclusive: 10 µM [rising, single point]"
FC(F)(F)c1cc(-c2ccco2)nc(-n2nc(C(F)(F)F)cc2C2CC2)n1,inconclusive: 24.8%,–
COc1cccc(-c2csc(N3CCN(S(=O)(=O)c4ccc(F)cc4)CC3)n2)c1,inconclusive: -5.11% [cytotoxic],–
COc1ccc2nc(SCC(=O)Nc3ccccc3C#N)[nH]c2c1,–,"inconclusive: 6.31 µM [rising, partial curve]"
O=C(CN(CCc1ccccc1)C(=O)CN1C(=O)COc2ccccc21)NCc1ccco1,inconclusive: -8.85%,–
C=CCn1c(SCc2cccnc2)nnc1-c1ccncc1,–,"inconclusive: 25.1 µM [rising, single point]"
COC(=O)c1c(C(C)=O)cnc2ccc(Br)cc12,inconclusive: 12.4%,–
Oc1ccc2[nH]ccc2c1,inconclusive: -3.56%,–
Cn1nccc1/C=C(/C#N)S(=O)(=O)c1ccccc1,inactive: -5%,–
CCC(=O)Nc1cc(C)c(NC(=O)C23CC4CC(CC(C4)C2)C3)cn1,inactive: 3.56%,–
Fc1ccc2[nH]c3c(N4CCSCC4)ncnc3c2c1,inconclusive: -14.1%,–
CCn1c(SCC(N)=O)nnc1-c1ccc(S(=O)(=O)N2CCN(C)CC2)cc1,inconclusive: 2.3%,–
Cc1cc(Cl)ccc1OC(C)C(=O)Nc1ccccc1N1CCOCC1 (stereo not drawn),inactive: 0.358%,–
CC(C)COC(=O)n1c(SCC(=O)N(C)C)nc2ccccc21,–,active: 12.6 µM
Cc1ccc2cccc(S(=O)(=O)N3CCN(c4ccccc4F)CC3)c2n1,inconclusive: 9.89%,–
NC(=O)c1ccccc1NC(=O)CS(=O)(=O)Cc1ccccc1,–,active: 12.6 µM
CC(C)[C@]1(Cl)CC[C@@H]2[C@]3(C)CCC[C@@](C)(C(=O)O)[C@H]3C[C@H](Cl)[C@@]2(Cl)[C@H]1Cl,inactive: -0.319% [at 7.6 µM],–
COc1ccc(C[C@@H]2c3cc(OC)c(OC)cc3CC[N@+]2(C)CCC(=O)OCCCCCOC(=O)CC[N@@+]2(C)CCc3cc(OC)c(OC)cc3[C@H]2Cc2ccc(OC)c(OC)c2)cc1OC,inactive: 9.21% [at 17.1 µM],–
CC(C)Cn1c(N)c(C(=O)COC(=O)c2ccc3c(c2)OCCO3)c(=O)n(C)c1=O,inconclusive: 13.2%,–
CCOC(=O)c1sc(N2C(=O)C(O)=C(C(=O)c3ccco3)C2c2ccccc2)nc1C (stereo not drawn),–,"inconclusive: 7.94 µM [rising, partial curve]"
CCOC(=O)c1sc2nc(N3CCOCC3)c3c(c2c1N)CC(C)(C)N(C)C3,inactive: 10.6%,–
CCOC(=O)c1c(C)[nH]c(C(=O)COC(=O)C2CC2C)c1C (stereo not drawn),–,"inconclusive: 25.1 µM [rising, single point]"
COc1cccc(-c2cc(C(=O)N3CCCc4ccccc43)no2)c1,inconclusive: -7.55%,–
O=C(CCn1nc(-c2ccccc2)c2ccccc2c1=O)N1CCN(c2ccccc2)CC1,inconclusive: 16.6%,–
Cc1cc(C)c2cc(CN(CCO)C(=O)Nc3ccc(F)cc3)c(=O)[nH]c2c1,–,"inconclusive: 10 µM [rising, partial curve]"

Compound,"activity change, negative = inhibition",Potency
COc1ccc2[nH]cc(CCNc3cc(-c4ccc(C(=O)N(C)C)cc4)ncn3)c2c1,inconclusive: 24.8%,–
NC(=O)CSc1nc2sc3c(c2c2ncnn12)CCCC3,–,"inconclusive: 3.16 µM [rising, partial curve]"
CS(=O)(=O)Nc1ccc([N+](=O)[O-])cc1OC1CCCCC1,inconclusive: -3.62%,–
O=C(CN1C(=O)c2ccccc2C1=O)N1CCN(c2ccccc2)CC1,inactive: -24.1%,–
Cc1cc(NC(=O)CCCS(=O)(=O)c2nc(-c3cccs3)cc(C(F)(F)F)n2)no1,inconclusive: -12.3% [cytotoxic],–
O=C(O)c1cc(NCc2ccc3c(c2)OCO3)ccc1N1CCOCC1,inconclusive: 12.9%,–
O=C(O)c1c(Cl)cccc1Cl,inactive: -12.5%,–
COc1ccc(C(=O)N2CCN(C(C)=O)CC2)cc1S(=O)(=O)NCc1ccc(Cl)cc1,inconclusive: -9.25%,–
CCCCc1ccc2nc(NC(=O)OC)[nH]c2c1,–,active: 0.251 µM
CC(=O)Nc1ccc(NC(=O)CSc2nccn2Cc2ccccc2)cc1,inconclusive: -4.6% [at 7.6 µM],–
COC(=O)c1ccc(COc2ccc3c(C)c(C)c(=O)oc3c2C)o1,–,"inconclusive: 1 µM [rising, single point]"
Cc1ccc2c(c1)c1nc3ccccc3nc1n2CCN1CCOCC1,–,active: 1.26 µM
Cc1cc(C(F)(F)F)nn1-c1nc(-c2ccco2)cc(C(F)(F)F)n1,inconclusive: -1.96%,–
Cc1cc(=O)n2nc(N3CCCC(C(=O)NCCc4ccccc4)C3)sc2n1 (stereo not drawn),inconclusive: 2.35%,–
CCOC(=O)c1c(NC(=O)c2ccco2)sc2c1CCCCC2,–,active: 10 µM
COc1cccc(CN2CCN(c3ncccn3)CC2)c1,inconclusive: -6.24% [at 7.6 µM],–
Cc1cc(NC(=O)c2ocnc2C)no1,inactive: 19.7%,–
Cc1nc(NCc2ccco2)c2c3c(sc2n1)CCC3,–,"inconclusive: 10 µM [rising, partial curve]"
COc1cc2[nH]c3c(N4CCN(c5ccccn5)CC4)ncnc3c2cc1OC,inactive: -7.86%,–
Cc1ccc(-c2nn(C)c(=O)c3ccccc23)cc1S(=O)(=O)N1CCCC1,–,active: 3.16 µM
CCOC(=O)N1CCN(CC(=O)Nc2cc(OCC)ccc2OCC)CC1,inconclusive: 10.4%,–
CCC(C)NC(=O)C(NS(=O)(=O)c1cccc2nsnc12)c1ccccc1 (stereo not drawn),–,"inconclusive: 3.16 µM [falling, single point]"
C=CCN=C1CC(C)(C)CC(=O)/C1=C(/O)CCC(=O)OC,–,"inconclusive: 3.98 µM [rising, partial curve]"
O=C(Nc1cccc(N2CCCC2)c1)c1cccs1,inactive: -12.5%,–
C/C=C/Cn1c(SCc2ccccc2)nc2c1c(=O)[nH]c(=O)n2C,–,"inconclusive: 10 µM [rising, partial curve]"
O=C(C1CCC1)N1CCC(c2nc3c(nnn3Cc3c(F)cccc3Cl)c(=O)[nH]2)CC1,–,"inconclusive: 10 µM [rising, partial curve]"
